The supplement of paper PMC3334620
In all, about 33,000 sequences were measured (“E-score (-0.5 to 0.5)”: median about -0.04, highest 2% from about 0.36 on). Some of the results follow.

These sequences were tested against T1, Hmlalpha2 (UniProt P0CY09) (assay: PBM E-score (8-mer binding enrichment) (E-score (-0.5 to 0.5)); higher = stronger / more preferred TF binding; most listed sequences are background and not binding sites). Details: protein concentration: 200 nM; construct: GST-full length.
T1 sequence: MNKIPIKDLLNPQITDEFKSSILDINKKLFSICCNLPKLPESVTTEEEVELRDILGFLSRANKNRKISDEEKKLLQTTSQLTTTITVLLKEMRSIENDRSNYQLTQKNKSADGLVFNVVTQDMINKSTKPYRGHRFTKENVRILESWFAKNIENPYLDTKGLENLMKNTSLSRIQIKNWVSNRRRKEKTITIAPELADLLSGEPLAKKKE
Outline: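 Each ungapped eight-base word and its reverse complement, pooled, received an E-score from the Universal PBM Analysis Suite. Underlying scans, normalised with masliner, recorded fluorescent anti-GST bound to GST-tagged yeast transcription factors. These were applied at about 100-200 nM to universal all-10-mer Agilent arrays double-stranded by primer extension.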
In the case of CTCGTAGA, the “PBM E-score” value is reported as -0.0578.
AGCTTACA was tested, and the “PBM E-score” value was 0.3.
AAACTATC was tested, and the “PBM E-score” value was -0.00765.
In the case of GGCCAATA, the “PBM E-score” value is reported as -0.0158.
With CTGGGTGC the “PBM E-score” value was -0.351.
With ACATCATC the “PBM E-score” value was 0.105.
For ACCGGCGA, the “PBM E-score” value was -0.291.
With TACTGACA the “PBM E-score” value was 0.166.
CATATAGG was tested, and the “PBM E-score” value was -0.067.
For ATAAGCAC, the “PBM E-score” value was 0.156.
For CTCTATAA, the “PBM E-score” value was 0.0559.
ACTGTGAT was tested, and the “PBM E-score” value was -0.127.
For GGGGGCGA, the “PBM E-score” value was -0.352.
For AGTCTCAC, the “PBM E-score” value was -0.207.
In the case of CATGAACG, the “PBM E-score” value is reported as -0.00018.
In the case of CTGCGTAC, the “PBM E-score” value is reported as 0.186.
CTGGCACC was tested, and the “PBM E-score” value was -0.331.
For CAGCCACA, the “PBM E-score” value was -0.111.
AATCGATT was tested, and the “PBM E-score” value was 0.145.
In the case of CCCAAGCC, the “PBM E-score” value is reported as -0.214.
In the case of CCAGATGA, the “PBM E-score” value is reported as -0.12.
With TAGGTCCA the “PBM E-score” value was 0.124.
With ATTATCAC the “PBM E-score” value was 0.243.
TATCTTAA was tested, and the “PBM E-score” value was 0.159.
With AATACGTA the “PBM E-score” value was 0.317.
With CAACGGTA the “PBM E-score” value was -0.207.
With ATAAGGAC the “PBM E-score” value was -0.0325.
ACACGTGC was tested, and the “PBM E-score” value was 0.331.
In the case of CACAGCAG, the “PBM E-score” value is reported as 0.0881.
ACGGGAGC was tested, and the “PBM E-score” value was -0.0847.
For TATCGTAA, the “PBM E-score” value was 0.263.
With ACCGCGTC the “PBM E-score” value was 0.113.
With AAAAGCAG the “PBM E-score” value was -0.156.
In the case of GGTGATAC, the “PBM E-score” value is reported as -0.262.
ATTAGCAA was tested, and the “PBM E-score” value was 0.213.
ACCGCCGC was tested, and the “PBM E-score” value was -0.0583.
In the case of AAAGGTTA, the “PBM E-score” value is reported as -0.0358.
AGGCCCAT was tested, and the “PBM E-score” value was -0.267.
GAGGCCCC was tested, and the “PBM E-score” value was -0.353.
For CTAACCTC, the “PBM E-score” value was -0.0647.
For TCTATAGA, the “PBM E-score” value was -0.124.
With GCGCCCAA the “PBM E-score” value was -0.161.
With AAAGGAAC the “PBM E-score” value was 0.134.
With CCGAGAGC the “PBM E-score” value was -0.296.
For GCATGGCA, the “PBM E-score” value was 0.013.
In the case of CACCGCAC, the “PBM E-score” value is reported as -0.219.
GCGAAACC was tested, and the “PBM E-score” value was 0.104.
With CAGCTTGG the “PBM E-score” value was -0.199.
ACGGGTAA was tested, and the “PBM E-score” value was 0.128.
In the case of CAACTTTA, the “PBM E-score” value is reported as 0.198.
In the case of GAAACGGC, the “PBM E-score” value is reported as -0.0848.
CCAAGCAC was tested, and the “PBM E-score” value was 0.0204.
GCCCGAGA was tested, and the “PBM E-score” value was -0.0895.
ATATACAA was tested, and the “PBM E-score” value was 0.343.
For GATCACAA, the “PBM E-score” value was 0.0153.
With TATCAAAA the “PBM E-score” value was 0.173.
For CTCGTCAC, the “PBM E-score” value was -0.0377.
For ACTACATC, the “PBM E-score” value was 0.275.
For GCTAAGCA, the “PBM E-score” value was -0.107.
For GTAAGATA, the “PBM E-score” value was 0.152.
With ACCCTGGC the “PBM E-score” value was -0.248.
With CGTTGTAA the “PBM E-score” value was 0.368.
With CACATTGA the “PBM E-score” value was 0.097.
In the case of AACGTAGT, the “PBM E-score” value is reported as 0.218.
With ATATGGTA the “PBM E-score” value was -0.0997.
GGACGAAC was tested, and the “PBM E-score” value was 0.186.
With AAATAATG the “PBM E-score” value was 0.214.
In the case of CCGAATAC, the “PBM E-score” value is reported as 0.229.
For CTCACGAG, the “PBM E-score” value was -0.271.
For CTCAATTC, the “PBM E-score” value was -0.0489.
With AGAGGTTC the “PBM E-score” value was -0.126.
In the case of ATCATGCA, the “PBM E-score” value is reported as -0.0495.
GGTGTTAA was tested, and the “PBM E-score” value was 0.361.
GCCGGTCA was tested, and the “PBM E-score” value was -0.234.
In the case of CGAGTTAC, the “PBM E-score” value is reported as 0.221.
In the case of ACCATTGC, the “PBM E-score” value is reported as -0.0219.
In the case of GCGAAACA, the “PBM E-score” value is reported as 0.133.
With GTGGGGAA the “PBM E-score” value was 0.0486.
GGCCTGTA was tested, and the “PBM E-score” value was 0.0301.
For CCTCTTGA, the “PBM E-score” value was -0.157.
For CTGCGCAC, the “PBM E-score” value was -0.0954.
AAGGCCAT was tested, and the “PBM E-score” value was -0.134.
In the case of GTGTGTAA, the “PBM E-score” value is reported as 0.465.
In the case of ACGATCGT, the “PBM E-score” value is reported as 0.16.
With AGAACCAC the “PBM E-score” value was -0.188.
GACTTTCA was tested, and the “PBM E-score” value was -0.214.
For GACAACCC, the “PBM E-score” value was -0.0305.
With ATACACGG the “PBM E-score” value was 0.445.
For AGCGGATG, the “PBM E-score” value was -0.0721.
In the case of CTGTCCGC, the “PBM E-score” value is reported as -0.188.
For TGATAGCA, the “PBM E-score” value was 0.0912.
In the case of ATGTAAAT, the “PBM E-score” value is reported as 0.477.
AAATGATA was tested, and the “PBM E-score” value was 0.237.
For GCACAAGC, the “PBM E-score” value was -0.00899.
With AGGGGCCC the “PBM E-score” value was -0.228.
With CTAATTAG the “PBM E-score” value was 0.00067.
CGGCACTC was tested, and the “PBM E-score” value was -0.213.
ATTCAGAA was tested, and the “PBM E-score” value was -0.017.
AGAGCTAC was tested, and the “PBM E-score” value was 0.0202.
For CCGAAGGA, the “PBM E-score” value was -0.149.
With CACGATCC the “PBM E-score” value was 0.199.
In the case of CGGTGCAC, the “PBM E-score” value is reported as -0.188.
CTATAGCC was tested, and the “PBM E-score” value was -0.444.
With ACTATTCA the “PBM E-score” value was 0.0524.
With AAGCGCTT the “PBM E-score” value was 0.0755.
In the case of CATGGCCC, the “PBM E-score” value is reported as -0.133.
In the case of ATCCGGTG, the “PBM E-score” value is reported as 0.169.
CCGAGACA was tested, and the “PBM E-score” value was -0.133.
CCGTATAC was tested, and the “PBM E-score” value was 0.0388.
In the case of TCCGTTAA, the “PBM E-score” value is reported as 0.0489.
For GGGACAAA, the “PBM E-score” value was -0.107.
In the case of CTCCAGAC, the “PBM E-score” value is reported as -0.181.
CGGTTCCC was tested, and the “PBM E-score” value was -0.17.
With CAACCGCC the “PBM E-score” value was -0.0495.
TAGGTTAA was tested, and the “PBM E-score” value was 0.245.
For CTTATGTC, the “PBM E-score” value was 0.117.
In the case of TATGTGAA, the “PBM E-score” value is reported as 0.294.
GCCTAACC was tested, and the “PBM E-score” value was -0.105.
CAAAGTCC was tested, and the “PBM E-score” value was -0.191.
TAGAGTAA was tested, and the “PBM E-score” value was 0.132.
In the case of AAGGTTCG, the “PBM E-score” value is reported as -0.0772.
For AGATCAAG, the “PBM E-score” value was 0.137.
In the case of GTTGGCAA, the “PBM E-score” value is reported as 0.167.
With CCGTGTCC the “PBM E-score” value was 0.0408.
For ACGTATCA, the “PBM E-score” value was 0.193.
In the case of CCAGGTAA, the “PBM E-score” value is reported as 0.229.
AACTAATA was tested, and the “PBM E-score” value was 0.283.
With CCCCTTCG the “PBM E-score” value was -0.228.
In the case of CAGCGCCG, the “PBM E-score” value is reported as -0.246.
GCACATAA was tested, and the “PBM E-score” value was 0.12.
AACCTGCC was tested, and the “PBM E-score” value was -0.0615.
For CCAGGTAC, the “PBM E-score” value was -0.122.
For CAGCAGAC, the “PBM E-score” value was 0.0511.
For CGGAGAAA, the “PBM E-score” value was -0.155.
CGAGTAGA was tested, and the “PBM E-score” value was -0.104.
In the case of ACTTGATG, the “PBM E-score” value is reported as 0.203.
With ACAAAATC the “PBM E-score” value was 0.0251.
GGGAATCA was tested, and the “PBM E-score” value was -0.156.
With CAAAGCCG the “PBM E-score” value was -0.0798.
For AAGGGACG, the “PBM E-score” value was -0.155.
ACAAAAGT was tested, and the “PBM E-score” value was 0.187.
In the case of TAAAGGCA, the “PBM E-score” value is reported as 0.0827.
AACCACAT was tested, and the “PBM E-score” value was 0.274.
With GAAGTAGC the “PBM E-score” value was -0.136.
With GATGGGGA the “PBM E-score” value was -0.248.
GGCCTTTA was tested, and the “PBM E-score” value was -0.0983.
GTGGCCAA was tested, and the “PBM E-score” value was -0.139.
For ACCTGCGT, the “PBM E-score” value was 0.233.
ATCAGTCC was tested, and the “PBM E-score” value was -0.413.
For GGGTTGAA, the “PBM E-score” value was -0.0682.
In the case of CCTTAAGG, the “PBM E-score” value is reported as 0.121.
For CGCATACG, the “PBM E-score” value was 0.107.
With CGCTAGGA the “PBM E-score” value was -0.0388.
With CCGAGGTC the “PBM E-score” value was -0.331.
AAGTAAGC was tested, and the “PBM E-score” value was 0.107.
For TCTCCTCA, the “PBM E-score” value was -0.254.
For GGAGTCTA, the “PBM E-score” value was -0.269.
For ATCCTTAA, the “PBM E-score” value was -0.0452.
ACCCACGA was tested, and the “PBM E-score” value was -0.0358.
For GTGACTAA, the “PBM E-score” value was 0.0628.
In the case of GCCTAAGA, the “PBM E-score” value is reported as -0.106.
In the case of GAGTCCGA, the “PBM E-score” value is reported as -0.012.
In the case of GGCGAGTA, the “PBM E-score” value is reported as -0.0952.
ATATCTCA was tested, and the “PBM E-score” value was 0.0665.
In the case of GAGGCTGA, the “PBM E-score” value is reported as -0.174.
For TACGAGTA, the “PBM E-score” value was 0.185.
CTCGTCCC was tested, and the “PBM E-score” value was -0.182.
In the case of CTCCAGCC, the “PBM E-score” value is reported as -0.351.
In the case of ACCTTTCG, the “PBM E-score” value is reported as -0.227.
In the case of ATTATTTG, the “PBM E-score” value is reported as 0.235.
In the case of CTTCCCAA, the “PBM E-score” value is reported as -0.102.
With GTGGGGGA the “PBM E-score” value was -0.322.
